Test results taken from patent US20250092146A1 (ABILITA BIO, published 2025).
Residue numbers refer to the chain shown, from its start. Each block holds one binder with its values, some of them ahead of it.

Experiments:
human CCR8 (hCCR8) [1] = target: T1, human CCR8 (hCCR8) (human, UniProt P51685 1-355); test: flow cytometry on HEK293-hCCR8 cells, VHH-Fc
T1 construct: On transfected HEK293/HEK293T cells, or naturally expressed on HuT-78 cells; also called C-C chemokine receptor type 8

human CCR8 (hCCR8) [2] = target: T1, human CCR8 (hCCR8); test: flow cytometry on HEK293-hCCR8 cells, VHH-Fc; normalized to wild type VHH-2-Fc
T1 sequence (P51685 whole entry): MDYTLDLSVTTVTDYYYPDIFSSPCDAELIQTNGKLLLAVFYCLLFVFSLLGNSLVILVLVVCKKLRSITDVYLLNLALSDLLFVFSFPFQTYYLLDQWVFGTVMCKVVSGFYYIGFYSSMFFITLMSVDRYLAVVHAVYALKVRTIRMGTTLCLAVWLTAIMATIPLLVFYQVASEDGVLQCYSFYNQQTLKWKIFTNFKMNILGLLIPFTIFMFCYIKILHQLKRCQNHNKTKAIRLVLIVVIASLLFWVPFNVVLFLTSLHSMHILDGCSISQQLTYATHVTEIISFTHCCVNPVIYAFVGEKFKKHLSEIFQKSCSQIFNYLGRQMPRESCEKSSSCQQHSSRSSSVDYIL

human CCR8 (hCCR8) [3] = target: T1, human CCR8 (hCCR8); test: flow cytometry on HEK293-hCCR8 cells
human CCR8 (hCCR8) [4] = target: T1, human CCR8 (hCCR8); test: flow cytometry on HEK293-hCCR8 cells; normalized to VHH-2-Fc

B1: VHH-2-Fc R38A (Fc fusion)
heavy: QVQLQESGGGLVQAGGSLRLTCAVSGSTSTINAFAWYRQAPGKQRELVAATSSRTSPNYADSVKGRFRFSRDNARSAVYLQMDNLRPEDTAVYFCQARMAMGSSQVVYWGLGTQVTVSS[human IgG1 Fc not given here]
notes: rest as VHH-2-Fc
- EC50 (human CCR8 (hCCR8) [1]): 6.02 nM
- % Bmax (human CCR8 (hCCR8) [2]): 22%

B3: VHH-2-Fc S57A (Fc fusion)
heavy: B1 heavy with A33R, S52A
notes: rest as VHH-2-Fc
- EC50 (human CCR8 (hCCR8) [1]): 1.03 nM
- % Bmax (human CCR8 (hCCR8) [2]): 69%

B4: VHH-2-Fc N37A (Fc fusion)
heavy: B1 heavy with N32A, A33R
notes: rest as VHH-2-Fc
- EC50 (human CCR8 (hCCR8) [1]): 1.92 nM
- % Bmax (human CCR8 (hCCR8) [2]): 42%

B8: VHH-2-Fc Q114A (Fc fusion)
chain: B1 heavy with A33R, Q105A
notes: rest as VHH-2-Fc
- EC50 (human CCR8 (hCCR8) [1]): 0.96 nM
- % Bmax (human CCR8 (hCCR8) [2]): 68%

B9: VHH-2-Fc M110A (Fc fusion)
chain: B1 heavy with A33R, M101A
notes: rest as VHH-2-Fc
- EC50 (human CCR8 (hCCR8) [1]): 1.92 nM
- % Bmax (human CCR8 (hCCR8) [2]): 58%

B13: VHH-2-Fc M108A (Fc fusion)
chain: B1 heavy with A33R, M99A
notes: rest as VHH-2-Fc
- EC50 (human CCR8 (hCCR8) [1]): 1.62 nM
- % Bmax (human CCR8 (hCCR8) [2]): 63%

B14: VHH-2-Fc S30A (Fc fusion)
heavy: B1 heavy with S29A, A33R
notes: rest as VHH-2-Fc
- EC50 (human CCR8 (hCCR8) [1]): 1.62 nM
- % Bmax (human CCR8 (hCCR8) [2]): 66%

B15: VHH-2-Fc S63A (Fc fusion)
chain: B1 heavy with A33R, S56A
notes: rest as VHH-2-Fc; Printed position is doubtful
- EC50 (human CCR8 (hCCR8) [1]): 1.08 nM
- % Bmax (human CCR8 (hCCR8) [2]): 70%

B16: VHH-2-Fc S58A (Fc fusion)
heavy: B1 heavy with A33R, S53A
notes: rest as VHH-2-Fc
- EC50 (human CCR8 (hCCR8) [1]): 1.02 nM
- % Bmax (human CCR8 (hCCR8) [2]): 65%

B19: VHH-2-Fc Q105A (Fc fusion)
chain: B1 heavy with A33R, Q96A
notes: rest as VHH-2-Fc
- EC50 (human CCR8 (hCCR8) [1]): 1.9 nM
- % Bmax (human CCR8 (hCCR8) [2]): 73%

B20: VHH-2-Fc S28A (Fc fusion)
chain: B1 heavy with S27A, A33R
notes: rest as VHH-2-Fc
- EC50 (human CCR8 (hCCR8) [1]): 1.61 nM
- % Bmax (human CCR8 (hCCR8) [2]): 68%

The next lines start with the values.

- EC50 (human CCR8 (hCCR8) [1]): 1.43 nM
- % Bmax (human CCR8 (hCCR8) [2]): 65%
B2: VHH-2-Fc T29A (Fc fusion)
chain: B1 heavy with T28A, A33R
notes: rest as VHH-2-Fc

- EC50 (human CCR8 (hCCR8) [1]): 0.9 nM
- % Bmax (human CCR8 (hCCR8) [2]): 48%
B5: VHH-2-Fc S113A (Fc fusion)
chain: B1 heavy with A33R, S104A
notes: rest as VHH-2-Fc

- EC50 (human CCR8 (hCCR8) [3]): 1.35 nM
- Bmax % (human CCR8 (hCCR8) [4]): 70.7%
B6: VHH-18-Fc (Fc fusion)
chain: B1 heavy with Q105R

- EC50 (human CCR8 (hCCR8) [3]): 1.16 nM
- Bmax % (human CCR8 (hCCR8) [4]): 95.4%
B7: VHH-15-Fc (Fc fusion)
chain: B1 heavy with A33R, T55G, M99R

- EC50 (human CCR8 (hCCR8) [1]): 1.34 nM
- % Bmax (human CCR8 (hCCR8) [2]): 11%
B10: VHH-2-Fc V115A (Fc fusion)
chain: B1 heavy with A33R, V106A
notes: rest as VHH-2-Fc

- EC50 (human CCR8 (hCCR8) [1]): 0.83 nM
- % Bmax (human CCR8 (hCCR8) [2]): 72%
B11: VHH-2-Fc V116A (Fc fusion)
chain: B1 heavy with A33R, V107A
notes: rest as VHH-2-Fc

- EC50 (human CCR8 (hCCR8) [3]): 1.1 nM
- Bmax % (human CCR8 (hCCR8) [4]): 69.5%
B12: VHH-16-Fc (Fc fusion)
chain: B1 heavy with A33R, T55G, A100T

- EC50 (human CCR8 (hCCR8) [3]): 1.38 nM
- Bmax % (human CCR8 (hCCR8) [4]): 51.8%
B17: VHH-13-Fc (Fc fusion)
chain: B1 heavy with A33R, Q96N

- EC50 (human CCR8 (hCCR8) [3]): 1.54 nM
- Bmax % (human CCR8 (hCCR8) [4]): 80.4%
B18: VHH-17-Fc (Fc fusion)
chain: B1 heavy with A33R, Q105W

- EC50 (human CCR8 (hCCR8) [3]): 4.28 nM
- Bmax % (human CCR8 (hCCR8) [4]): 85.6%
B21: VHH-14-Fc (Fc fusion)
chain: B1 heavy with A33R, R54G, M99L

- EC50 (human CCR8 (hCCR8) [1]): 0.89 nM
- % Bmax (human CCR8 (hCCR8) [2]): 88%
B22: VHH-2-Fc S112A (Fc fusion)
chain: B1 heavy with A33R, S103A
notes: rest as VHH-2-Fc

- EC50 (human CCR8 (hCCR8) [3]): 1.58 nM
- Bmax % (human CCR8 (hCCR8) [4]): 69.1%
B23: VHH-21-Fc (Fc fusion)
chain: B1 heavy with A33R, T55G, G102A

- EC50 (human CCR8 (hCCR8) [1]): 0.87 nM
- % Bmax (human CCR8 (hCCR8) [2]): 65%
B24: VHH-2-Fc T35A (Fc fusion)
heavy: B1 heavy with T30A, A33R
notes: rest as VHH-2-Fc
